The IC50 comes from the fitted curve, where viability falls to half of the control; where the fit passes the top or lowest dose, that dose stands as a limit. AUC, from the same fit, is the share of area under the viability curve across the 256-fold dose range: 1 means no effect, lower means more sensitive. A top dose marked as inferred comes from the curve model; the source does not state it. For part of these data: Where an entry number is given, a second screen of the drug exists; the two often differ.
Legend:
Experiment in all cases: Viability of human cancer cell lines after 72 h of drug (GDSC screen)
Shikonin = compound: CC(C)=CC[C@@H](O)C1=CC(=O)c2c(O)ccc(O)c2C1=O [Shikonin]; details: top dose 16 µM; top dose inferred
Experimental: (§1)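 Human cancer cell lines in 384-well plates, medium with 10% serum, drug for 72 h over a 256-fold dose range (nine 2-fold or five 4-fold steps up to the top dose). Adherent lines were fixed and stained with the nucleic acid dye Syto60, suspension lines read with resazurin; signal relative to control wells, capped at 0 and 100%. One two-parameter sigmoid per drug and line, fitted in a mixed model over all curves with the slope shared within a line.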

CGP-082996 (CINK4) = compound: CCNc1cc(NC2CCC(O)CC2)nc(Nc2ccc3c(ccn3Cc3ccccc3)c2)n1 [CGP-082996 (CINK4)]; details: top dose 5.12 µM; top dose inferred
Experimental: as §1

A-770041 = compound: COc1cc(-c2nn([C@H]3CC[C@H](N4CCN(C(C)=O)CC4)CC3)c3ncnc(N)c23)ccc1NC(=O)c1cc2ccccc2n1C [A-770041]; details: top dose 5.12 µM; top dose inferred
Experimental: as §1

XMD8-85 = compound: COc1cc(N2CCN(C)CC2)ccc1Nc1ncc2c(n1)N(C)c1ccccc1C(=O)N2C [XMD8-85]; details: top dose 8 µM; top dose inferred
Experimental: as §1

BMS-536924 = compound: Cc1cc(N2CCOCC2)cc2[nH]c(-c3c(NC[C@@H](O)c4cccc(Cl)c4)cc[nH]c3=O)nc12 [BMS-536924]
Experimental: as §1

SB-525334 = compound: Cc1cccc(-c2[nH]c(C(C)(C)C)nc2-c2ccc3nccnc3c2)n1 [SB-525334]; details: top dose 20 µM; top dose inferred
Experimental: as §1

VX-702 = compound: NC(=O)c1ccc(N(C(N)=O)c2c(F)cccc2F)nc1-c1ccc(F)cc1F [VX-702]; details: top dose 2 µM; top dose inferred
Experimental: as §1

Olaparib = compound: O=C(c1cc(Cc2n[nH]c(=O)c3ccccc23)ccc1F)N1CCN(C(=O)C2CC2)CC1 [Olaparib]
Experimental: as §1

Wee1 inhibitor 681640 = compound: O=C1NC(=O)c2c1c(-c1ccccc1Cl)cc1[nH]c3ccc(O)cc3c21 [Wee1 inhibitor 681640]; details: top dose 2 µM; top dose inferred
Experimental: as §1

[1] = top dose 4 µM, screen: GDSC drug entry 1091, top dose inferred
[2] = top dose 5.12 µM, screen: GDSC drug entry 62
[3] = top dose 5 µM, screen: GDSC drug entry 1017, top dose inferred
[4] = top dose 10 µM, screen: GDSC drug entry 1495

Row | Cell Line | AUC (Shikonin) | IC50 (Shikonin) [µM] | AUC (CGP-082996 (CINK4)) | IC50 (CGP-082996 (CINK4)) [µM] | AUC (A-770041) | IC50 (A-770041) [µM] | AUC (XMD8-85) | IC50 (XMD8-85) [µM] | AUC (BMS-536924; [1]) | IC50 (BMS-536924; [1]) [µM] | AUC (BMS-536924; [2]) | IC50 (BMS-536924; [2]) [µM] | AUC (SB-525334) | IC50 (SB-525334) [µM] | AUC (VX-702) | IC50 (VX-702) [µM] | AUC (Olaparib; [3]) | IC50 (Olaparib; [3]) [µM] | AUC (Olaparib; [4]) | IC50 (Olaparib; [4]) [µM] | AUC (Wee1 inhibitor 681640) | IC50 (Wee1 inhibitor 681640) [µM]
1 | MOLM-13 (acute myeloid leukaemia, suspension) | 0.64 | 2.38 | 0.915 | > 5.12 | 0.913 | > 5.12 | 0.778 | 3.03 | 0.9 | > 4 | 0.383 | 0.156 | 0.946 | > 20 | 0.973 | > 2 | 0.942 | > 5 | 0.9 | > 10 | 0.961 | > 2
2 | MV-4-11 (leukaemia, suspension) | 0.307 | 0.322 | 0.848 | 2.82 | 0.871 | 3.41 | 0.701 | 1.63 |  |  |  |  | 0.99 | > 20 | 0.98 | > 2 |  |  |  |  | 0.884 | 1.5
3 | MY-M12 (leukaemia, suspension) | 0.342 | 0.342 | 0.931 | > 5.12 | 0.461 | 0.247 | 0.83 | 5.95 |  |  |  |  | 0.87 | > 20 | 0.979 | > 2 | 0.873 | > 5 |  |  | 0.973 | > 2
4 | NCI-H128 (small cell lung carcinoma, suspension) |  |  | 0.912 | > 5.12 | 0.94 | > 5.12 | 0.967 | > 8 |  |  | 0.971 | > 5.12 |  |  |  |  |  |  |  |  |  | 
5 | NCI-H748 (small cell lung carcinoma, suspension) | 0.54 | 1.33 | 0.943 | > 5.12 | 0.957 | > 5.12 | 0.872 | > 8 |  |  | 0.946 | > 5.12 | 0.946 | > 20 |  |  |  |  |  |  |  | 
6 | NCI-H1581 (large cell lung carcinoma, semi-adherent) | 0.715 | 3.82 | 0.984 | > 5.12 | 0.99 | > 5.12 | 0.987 | > 8 | 0.872 | 3.28 | 0.926 | > 5.12 | 0.984 | > 20 | 0.99 | > 2 | 0.99 | > 5 | 0.929 | > 10 |  | 
7 | NCI-H1963 (small cell lung carcinoma, suspension) | 0.212 | 0.165 | 0.977 | > 5.12 | 0.965 | > 5.12 | 0.966 | > 8 |  |  | 0.982 | > 5.12 | 0.969 | > 20 | 0.991 | > 2 | 0.991 | > 5 |  |  |  | 
8 | NCI-H2171 (small cell lung carcinoma, suspension) | 0.442 | 0.709 | 0.96 | > 5.12 | 0.99 | > 5.12 | 0.851 | 4.91 |  |  | 0.979 | > 5.12 | 0.948 | > 20 |  |  |  |  |  |  |  | 
